In PubChem BioAssay AID686979 (National Center for Advancing Translational Sciences (NCATS), 2013):
Where “and” joins values, the source holds several entries; their conditions need not be identical. Identical values can stand only once. Screen size: about 420,000 compounds; about 50,000 (12%) were called active. This list was built around the results that the source calls inconclusive (neither active nor inactive); the mix of calls is not that of the screen. The call rests on the fitted dose curve; in most records, active means well fitted inhibition curve with a large enough effect; inconclusive means small, poorly fitted or top-dose-only effect; inactive means flat fitted curve, though single readings scatter. Potencies beside an inconclusive call are fits to weak or partial responses and may not hold up.

Test: qHTS for Inhibitors of human tyrosyl-DNA phosphodiesterase 1 (TDP1): qHTS in cells in presence of CPT; further: nearly all actives have a fitted effect of over 55% in size
Details: chicken DT40 Tdp1-/-;hTDP1 cells + 20 nM CPT, ATP luminescence, 48 h; activity change, negative = growth inhibition: at 46.2 µM (top of the series)
Outline: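 Cell growth measured by CellTiter-Glo luminescence after a minimum 48 h, 37 C compound exposure with 20 nM CPT in Tdp1-knockout DT40 cells stably expressing hTDP1, seeded 400/well; qHTS titration format.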
On the % scale 0 is the no-effect control and ±100 the full control effect; potency means the concentration at half of the fitted maximal effect; tags describe the fitted curve by direction and shape.

**Q.** For `Fc1ccccc1-c1csc(-c2cccnc2)n1`, which Potency is on record?
**A.** inconclusive: 16.4 µM [inhibitor, single point]

**Q.** Which Potency does the source give for `COc1ccc(-c2cc(NC=O)c3ncc(-c4ccc(OC)c(OC)c4)n3c2)c(OC)c1` here?
**A.** active: 0.0411 µM

**Q.** For `CCN1/C(=C/C=C/c2oc3ccc(-c4ccccc4)cc3[n+]2CC)Oc2ccc(-c3ccccc3)cc21`, which Potency is on record?
**A.** active: 0.0073 µM

**Q.** With `Cc1cc(C)c2nc(-c3ccccc3)ccc2c1` as the compound, how does the Potency read?
**A.** inactive

**Q.** For `O=C1Nc2ccc(I)cc2C1=Cc1cc(Br)c(O)c(Br)c1`, which Potency is on record?
**A.** active: 10 µM

**Q.** With `COc1ccc(N2C(=O)CSC23CCC(C(C)(C)C)CC3)cc1` (stereo not drawn) as the compound, how does the Potency read?
**A.** inconclusive: 29.1 µM [inhibitor, single point]

**Q.** For `Cc1nn(-c2ccccc2)c(C)c1NC(=O)COc1ccccc1C#N`, which Potency is on record?
**A.** inconclusive: 18.4 µM [inhibitor, single point]

**Q.** With `CSCCC(NC(=O)c1ccccc1Cl)C(=O)Nc1cccc(S(=O)(=O)N2CCCC2)c1` (stereo not drawn) as the compound, how does the Potency read?
**A.** inconclusive: 14.6 µM [inhibitor, partial curve]

**Q.** Which Potency does the source give for `Cc1ccc(NC(=O)C2CCCN(S(=O)(=O)c3cnc[nH]3)C2)cc1F` (stereo not drawn) here?
**A.** inconclusive: 23.1 µM [inhibitor, single point]

**Q.** For `CCOC(=O)C1CCN(C(=O)CCc2nnc3ccc(N4CCC(C)CC4)nn23)CC1`, which Potency is on record?
**A.** active: 18.4 µM

**Q.** With `Cc1ccc(N(CC(N)=O)C2SC(=O)NC2=O)cc1` (stereo not drawn) as the compound, how does the Potency read?
**A.** inactive

**Q.** Which Potency does the source give for `CCc1cccc(C)c1Nc1nn2c(=O)c3ccccc3nc2s1` here?
**A.** active: 11.6 µM

**Q.** With `CCCn1c(N)c(C(=O)CSc2nnc(-c3ccco3)n2Cc2ccccc2)c(=O)[nH]c1=O` as the compound, how does the Potency read?
**A.** inactive

**Q.** For `Cc1ccc(C(=O)Nc2ccc3c(c2)OCO3)cc1`, which Potency is on record?
**A.** inconclusive: 20.6 µM [inhibitor, single point]

**Q.** Which Potency does the source give for `O=C(CSc1nnnn1-c1ccccc1)N1CCc2ccccc21` here?
**A.** inactive

**Q.** Which Potency does the source give for `CCC(C)[C@H]1CNCCN1CCCc1cc(OC)c(OC)c(OC)c1` (stereo partly drawn) here?
**A.** inactive

**Q.** Which Potency does the source give for `O=[N+]([O-])c1ccc(NCc2ccccc2N2CCC(CO)CC2)nc1` here?
**A.** inconclusive: 16.4 µM [inhibitor, partial curve]

**Q.** For `O=C(NC1CC1)c1cc(-c2ccc(Br)cc2)nc2ccccc12`, which Potency is on record?
**A.** inconclusive: 23.1 µM [inhibitor, single point]

**Q.** With `Cc1ccccc1C(=O)NC1CCN(Cc2nnnn2Cc2ccccc2)CC1` as the compound, how does the Potency read?
**A.** inconclusive: 25.9 µM [inhibitor, single point]

**Q.** With `CC(C)c1ccc(-n2nnnc2SCC(=O)NC2CC2)cc1` as the compound, how does the Potency read?
**A.** inconclusive: 29.1 µM [inhibitor, single point]

**Q.** For `Cc1cc(OCC(=O)NC2CC2)c2c(C)c(C)c(=O)oc2c1`, which Potency is on record?
**A.** inactive

**Q.** For `CC(=O)C(Cl)C(=O)Nc1ccccc1` (stereo not drawn), which Potency is on record?
**A.** active: 2.59 µM

**Q.** With `CCOC(=O)C1CCN(S(=O)(=O)c2ccc3c(c2)CC(=O)N3)CC1` as the compound, how does the Potency read?
**A.** inactive

**Q.** Which Potency does the source give for `CC1CCc2c(sc3ncnc(N4CCOCC4)c23)C1` (stereo not drawn) here?
**A.** inconclusive: 29.1 µM [inhibitor, single point]

**Q.** With `c1ccc(-c2noc(CSc3nnnn3-c3ccccc3)n2)cc1` as the compound, how does the Potency read?
**A.** inactive

**Q.** With `CCN(CC(=O)Nc1ccc(NC(C)=O)cc1)C(=O)c1ccccc1Sc1ccccc1C#N` as the compound, how does the Potency read?
**A.** inconclusive: 29.1 µM [inhibitor, single point]

**Q.** For `CN(C)/C=C/C(=O)c1ccc(N2CCN(c3ncc(C(F)(F)F)cc3Cl)CC2)cc1`, which Potency is on record?
**A.** inconclusive: 29.1 µM [inhibitor, single point]

**Q.** Which Potency does the source give for `CC(OC(=O)c1ccccc1NCc1ccco1)C(=O)Nc1ncc(Cl)cc1Cl` (stereo not drawn) here?
**A.** inconclusive: 25.9 µM [inhibitor, single point]

**Q.** Which Potency does the source give for `CCOc1ccc(C(C)=O)cc1CN1C(=O)NC2(CCCCCCC2)C1=O` here?
**A.** inconclusive: 25.9 µM [inhibitor, single point]

**Q.** With `CCN(CC)C(=S)SC1CCCCN(C(=O)c2ccccc2)C1=O` (stereo not drawn) as the compound, how does the Potency read?
**A.** active: 18.4 µM

**Q.** With `COc1ccc(N2CCN(CC(=O)N3N=CCC3c3ccccc3)CC2)cc1` (stereo not drawn) as the compound, how does the Potency read?
**A.** inactive

**Q.** Which Potency does the source give for `CCOC(=O)[C@]12CCCC=C1N(Cc1ccc(Cl)cc1Cl)C(=O)[C@H](CC(=O)NCC13CC4CC(CC(C4)C1)C3)C2` here?
**A.** inconclusive: 23.1 µM [inhibitor, single point]

**Q.** Which Potency does the source give for `COc1ccccc1N(C)S(=O)(=O)c1ccc(C(=O)NC2CCCCC2)cc1` here?
**A.** active: 14.6 µM

**Q.** With `Cc1ccc(CNC(=O)c2ccc3c(c2)c(C)c(C)n3Cc2ccc(Cl)cc2)o1` as the compound, how does the Potency read?
**A.** inconclusive: 20.6 µM [inhibitor, single point]

**Q.** With `Cc1noc(C(=O)N(C)c2ccccc2)c1Cl` as the compound, how does the Potency read?
**A.** inconclusive: 16.4 µM [inhibitor, partial curve]

**Q.** Which Potency does the source give for `CCOC(=O)c1ccc(NC(=O)CSc2nnc(CC)o2)cc1` here?
**A.** inactive

**Q.** Which Potency does the source give for `CN(C(=O)CSc1nc(-c2ccccc2)cn1N)C(c1ccccc1)c1ccccc1` here?
**A.** active: 20.6 µM

**Q.** With `CCn1c(Cc2cccs2)nnc1SCC(=O)NC(C)(C)C` as the compound, how does the Potency read?
**A.** inactive

**Q.** For `C=CCN(CC=C)Cc1cc(=O)oc2cc(C)cc(C)c12`, which Potency is on record?
**A.** inconclusive: 29.1 µM [inhibitor, single point]

**Q.** Which Potency does the source give for `CCOc1ccc(CCNC(=O)CN2C(=O)CCSc3ccccc32)cc1OCC` here?
**A.** inconclusive: 16.4 µM [inhibitor, single point]

**Q.** Which activity change, negative = growth inhibition does the source give for `Cc1ccc(-c2noc(-c3ccc(N4CCCC4)c([N+](=O)[O-])c3)n2)cc1` here?
**A.** inconclusive: -34.2% [inhibitor]

**Q.** Which Potency does the source give for `CC(NN)c1ccccc1` (stereo not drawn) here?
**A.** inactive

**Q.** With `Cc1ccc(-n2ncc3c(NCc4cccnc4)ncnc32)c(C)c1` as the compound, how does the Potency read?
**A.** active: 16.4 µM

**Q.** Which Potency does the source give for `COc1ccc(NC(=O)C(=O)NCC2CCCN2S(=O)(=O)c2cc(C)ccc2C)cc1` (stereo not drawn) here?
**A.** active: 4.11 µM

**Q.** With `Cc1ccc(S(=O)(=O)NC(C)(C)CN2CCc3ccccc3C2)cc1` as the compound, how does the Potency read?
**A.** inconclusive: 18.4 µM [inhibitor, single point]

**Q.** With `O=C(c1ccc(CSc2nc3ccncc3[nH]2)cc1)N1CCN(c2cccc(Cl)c2)CC1` as the compound, how does the Potency read?
**A.** active: 9.2 µM

**Q.** Which Potency does the source give for `CCc1cccc(C)c1NC(=O)CSc1nc2ccncc2[nH]1` here?
**A.** inconclusive: 11.6 µM [inhibitor, single point] and inconclusive: 29.1 µM [inhibitor, single point]

**Q.** With `O=C1Nc2cc(C(=O)N3CCOCC3)ccc2S/C1=C\c1ccccc1` as the compound, how does the Potency read?
**A.** inconclusive: 16.4 µM [inhibitor, single point]
